Data taken from a collection of fitness landscapes (doi:10.1016/j.celrep.2020.107928).
Whole data set: some 81,000 sequences, median “one-hybrid fitness for binding parS DNA” near -0.17, cut for the highest 2% near 0.51. This is one part of the list.

B1: Caulobacter ParB omega fusion; a variant is named by its letters at X, in order, B8GW30 (parent)
chain: MESVVVGEPGMSEGRRGLGRGLSALLGEVDAAPAQAPGEQLGGSREAPIEILQRNPDQPRRTFREEDLEDLSNSIREKGVLQPILVRPSPDTAGEYQIVAGERAWRAAQRAGLKTVPIMVRELDDLAVLEIGIIENVQRADLNVLEEALSYKVLMEKFERTQENIAQTIGKSXSHVANXMRLLXLPDEVQSYLVSGELTAXHARAIAAAADPVALAKQIIEGGLSVRETEALARKAPNLSAGKSKGGRPPRVKDTDTQALESDLSSVLGLDVSIDHRGSTGTLTITYATLEQLDDLCNRLTRGI

Variants of: B1
Test: one-hybrid fitness for binding parS DNA (scaled: cognate 1, non-cognate 0); higher = stronger binding
Settings: with parS DNA site
Procedure, shortened: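 The reporter was HIS3, with the binding site 19 bp from the promoter, in E. coli USO used for bacterial one-hybrid selection of Caulobacter ParB libraries with four specificity codons randomised. Growth was on M9 lacking histidine, with 0.1 mM IPTG and 5 mM 3-AT, for 48 hours at 37°C. Illumina sequencing covered plasmids before and after selection; three replicate libraries were pooled and variants with under 10 reads dropped. A fitness score is the log change in variant-to-wild-type read ratio, rescaled to the cognate and non-cognate references.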

Variant | one-hybrid fitness for binding parS DNA
QKHG | ≤ 0.2
WAVQ | ≤ 0.2
SDAN | ≤ 0.2
YLPH | ≤ 0.2
HMFL | ≤ 0.2
EKLL | ≤ 0.2
GCCR | ≤ 0.2
SVTS | ≤ 0.2
GWKT | ≤ 0.2
NLPE | ≤ 0.2
SLAK | ≤ 0.2
ANKV | ≤ 0.2
RIGY | 0.51
RLAA | 0.582
GSCF | ≤ 0.2
PLSS | ≤ 0.2
GVDD | ≤ 0.2
RKWE | ≤ 0.2
ARTR | ≤ 0.2
TKSW | ≤ 0.2
LKLR | ≤ 0.2
YIPD | ≤ 0.2
TIPK | ≤ 0.2
LRPI | ≤ 0.2
RWGC | 0.61

Variant | one-hybrid fitness for binding parS DNA
NEER | ≤ 0.2
RFHA | 0.53
QMHG | ≤ 0.2
NSQV | ≤ 0.2
HEFP | ≤ 0.2
SGTG | ≤ 0.2
IYWG | ≤ 0.2
QYRP | ≤ 0.2
KIPT | ≤ 0.2
QTLD | ≤ 0.2
SFCL | ≤ 0.2
TVEC | ≤ 0.2
LFTP | ≤ 0.2
HMKC | ≤ 0.2
FNNV | ≤ 0.2
IFRM | ≤ 0.2
FPHM | ≤ 0.2
QFVR | ≤ 0.2
YINM | ≤ 0.2
DNAQ | ≤ 0.2
TSKG | ≤ 0.2
ACDL | ≤ 0.2
RQWP | ≤ 0.2
IAGS | ≤ 0.2
FLKE | ≤ 0.2

Variant | one-hybrid fitness for binding parS DNA
MPDR | ≤ 0.2
VYDT | ≤ 0.2
AGNF | ≤ 0.2
GPDT | ≤ 0.2
VGYE | ≤ 0.2
WLSK | ≤ 0.2
SWLF | ≤ 0.2
KGTF | ≤ 0.2
HTQV | ≤ 0.2
QWPP | ≤ 0.2
RKCH | ≤ 0.2
GHLH | ≤ 0.2
VPIW | ≤ 0.2
IETC | ≤ 0.2
QRWW | ≤ 0.2
APMF | ≤ 0.2
YRSM | ≤ 0.2
EDND | ≤ 0.2
CVPS | ≤ 0.2
FSFC | ≤ 0.2
IMPT | ≤ 0.2
KHRI | ≤ 0.2
SMIH | ≤ 0.2
HRRW | ≤ 0.2
ELDS | ≤ 0.2

Variant | one-hybrid fitness for binding parS DNA
ELLI | ≤ 0.2
ACHC | ≤ 0.2
PRSR | ≤ 0.2
VIRR | ≤ 0.2
SSKP | ≤ 0.2
WCQT | ≤ 0.2
LVLV | ≤ 0.2
NFPS | ≤ 0.2
GDDN | ≤ 0.2
THNY | ≤ 0.2
QGVV | ≤ 0.2
APDV | ≤ 0.2
HPHW | ≤ 0.2
ADYR | ≤ 0.2
QVCD | ≤ 0.2
EVVG | ≤ 0.2
NEFT | ≤ 0.2
QNQR | ≤ 0.2
PGWT | ≤ 0.2
IGNC | ≤ 0.2
TGLT | ≤ 0.2
IAGC | ≤ 0.2
VPSE | ≤ 0.2
PILG | ≤ 0.2
QHPN | ≤ 0.2

Variant | one-hybrid fitness for binding parS DNA
EDYS | ≤ 0.2
LYEP | ≤ 0.2
TSWS | ≤ 0.2
LDVY | ≤ 0.2
DQIL | ≤ 0.2
LEGG | ≤ 0.2
ADTV | ≤ 0.2
RPMG | ≤ 0.2
TLRT | ≤ 0.2
PHHG | ≤ 0.2
WCCS | ≤ 0.2
DLAA | ≤ 0.2
PDRY | ≤ 0.2
ETIQ | ≤ 0.2
KSGS | ≤ 0.2
RCFI | ≤ 0.2
CGEG | ≤ 0.2
HISC | ≤ 0.2
RLQN | 0.471
VMSL | ≤ 0.2
LRDV | ≤ 0.2
HYPV | ≤ 0.2
TMDY | ≤ 0.2
SCPE | ≤ 0.2
MDWS | ≤ 0.2

Variant | one-hybrid fitness for binding parS DNA
PRKR | ≤ 0.2
RVKG | 0.941
SGNW | ≤ 0.2
KTWM | ≤ 0.2
HDRR | ≤ 0.2
VTMA | ≤ 0.2
AYYS | ≤ 0.2
QLPI | ≤ 0.2
PRGH | ≤ 0.2
SQLD | ≤ 0.2
YVVK | ≤ 0.2
YEIR | ≤ 0.2
QGMV | ≤ 0.2
NAPF | ≤ 0.2
QHRS | ≤ 0.2
MKVK | ≤ 0.2
FRPV | ≤ 0.2
DGLS | ≤ 0.2
GEYL | ≤ 0.2
NSMM | ≤ 0.2
AASC | ≤ 0.2
GVRI | ≤ 0.2
QQHT | ≤ 0.2
YQLH | ≤ 0.2
TFNS | ≤ 0.2

Variant | one-hybrid fitness for binding parS DNA
LEAM | ≤ 0.2
VGMN | ≤ 0.2
FIRY | ≤ 0.2
KPPG | ≤ 0.2
PMHR | ≤ 0.2
VPQS | ≤ 0.2
STCR | ≤ 0.2
LLHL | ≤ 0.2
QGKW | ≤ 0.2
GWMS | ≤ 0.2
CPWG | ≤ 0.2
KPCD | ≤ 0.2
PRVG | ≤ 0.2
SSPP | ≤ 0.2
MARR | ≤ 0.2
WRLI | ≤ 0.2
SDED | ≤ 0.2
PLGP | ≤ 0.2
QETA | ≤ 0.2
VAPA | ≤ 0.2
LKAM | ≤ 0.2
NRSC | ≤ 0.2
FHES | ≤ 0.2
AWGT | ≤ 0.2
DLSR | ≤ 0.2

Variant | one-hybrid fitness for binding parS DNA
LLKK | ≤ 0.2
RVQV | ≤ 0.2
PCSP | ≤ 0.2
SPVA | ≤ 0.2
MLIL | ≤ 0.2
QLTT | ≤ 0.2
YTER | ≤ 0.2
VKGG | ≤ 0.2
GVRS | ≤ 0.2
SRQC | ≤ 0.2
LFHD | ≤ 0.2
TPDI | ≤ 0.2
HAYD | ≤ 0.2
QMHM | ≤ 0.2
VKQD | ≤ 0.2
NCYG | ≤ 0.2
HVTL | ≤ 0.2
DRPA | ≤ 0.2
YWMG | ≤ 0.2
GWAT | ≤ 0.2
